# The list shows a part of the results. Sequences were assembled here from the parent chain. Inactive controls read about 0.05.
# B1: TEV protease; numbered along this chain (parent)
# chain: MGESLFKGPRDYNPISSSICHLTNESDGHTTSLYGIGFGPFIITNKHLFRRNNGTLVVQSLHGVFKVKDTTTLQQHLVDGRDMIIIRMPKDFPPFPQKLKFREPQREERICLVTTNFQTKSMSSMVSDTSCTFPSGDGIFWKHWIQTKDGQCGSPLVSTRDGFIVGIHSASNFTNTNNYFTSVPKNFMELLTNQEAQQWVSGWRLNADSVLWGGHKVFMVKPEEPFQPVKEATQL
# Variants of: B1
# Experiment: raw area under fraction-flipped curve 0-4 h after induction (AUC4h, not background-subtracted), DNA-recorder readout of cleavage of the substrate (dimensionless); higher = more cleavage of the substrate by the protease variant
# Settings: temperature: 34 °C; time window: 0-4 h after rhamnose induction
# 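Further: Bxb1 expression induced with 0.2% (w/v) L-rhamnose at OD600 near 0.5, cultures sampled hourly, flipped fraction per protease–substrate barcode pair counted by paired-end Illumina sequencing.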
Variant,area with substrate EFLYFQS,area with substrate EGLYFQS,area with substrate EILYFQS,area with substrate EMLYFQS,area with substrate EPLYFQS,area with substrate ERLYFQS,area with substrate ESLYFQS,area with substrate EVLYFQS,area with substrate EYLYFQS,area with substrate EELYFQS
N177R,0.137,0.142,0.102,0.142,0.165,0.131,0.119,0.112,0.105,–
S209T,0.0972,–,–,–,–,0.138,0.116,–,–,0.124
G2W,–,–,–,0.14,–,–,0.148,0.147,–,–
A232D,–,–,0.1,–,–,0.121,0.12,0.0884,–,0.191
Q74L,0.112,–,–,–,–,0.0724,0.0963,–,0.107,–
F180Y,–,0.0796,0.0744,0.0555,0.0857,–,0.128,0.0913,–,0.145
V210A,–,–,–,–,–,–,–,0.0841,–,0.0959
I139K,–,–,–,–,0.123,0.113,0.177,–,–,–
S130T,0.151,–,0.103,0.111,–,–,0.109,0.118,–,–
L235R,–,0.106,0.092,–,–,–,0.12,–,–,–
Y12T,–,–,0.121,0.118,0.104,0.12,0.0985,0.112,–,–
L205Q,–,–,0.105,–,–,–,–,0.0573,–,0.0871
S182D,0.0776,0.0682,–,0.0855,–,–,–,0.0468,–,0.0726
S154E,0.112,–,–,0.0906,0.0812,0.0781,0.0744,0.0655,–,–
F173K,–,–,–,0.0816,–,–,0.0746,0.0976,–,–
E195Q,0.131,–,–,–,–,–,0.107,–,–,0.113

Variant,area with substrate EFLYFQS,area with substrate EGLYFQS,area with substrate EILYFQS,area with substrate EMLYFQS,area with substrate EPLYFQS,area with substrate ERLYFQS,area with substrate ESLYFQS,area with substrate EVLYFQS,area with substrate EYLYFQS,area with substrate EELYFQS
G138E,–,–,–,–,–,–,–,–,–,0.0695
R102S,–,0.069,–,–,0.0573,0.0584,0.0576,0.0668,–,–
F163G,0.107,–,–,–,–,–,–,–,–,0.138
F163C,0.0952,0.0974,–,–,–,–,–,0.0946,–,–
H143Y,–,0.116,0.115,0.118,–,0.118,0.14,0.0799,0.133,–
E231D,–,0.0911,–,0.111,–,–,0.127,–,–,0.116
K90E,–,0.154,–,–,–,0.113,–,0.0789,0.109,–
G214L,–,0.0473,0.0663,–,–,0.0628,0.0695,–,–,0.0963
H215Y,–,–,0.0744,–,–,–,0.0768,0.073,0.104,0.122
T159W,–,–,–,–,–,–,0.101,–,–,–
E103N,0.119,–,0.108,–,–,–,–,0.113,–,–
Q97V,–,–,–,–,–,–,–,–,0.0899,–
I15R,–,–,–,0.0621,0.0516,–,0.071,0.0617,–,–
P228T,–,0.089,0.0828,–,0.11,–,–,0.106,–,0.103
F6E,0.0927,–,–,–,–,0.0836,0.104,0.0798,–,–
K7T,–,–,0.0776,–,0.105,0.0828,–,0.0781,–,–

# Same assay, conditions: temperature: 34 °C; time window: 0-4 h after rhamnose induction
Variant,area with substrate EKLYFQS,area with substrate ETLYFQS,area with substrate EQLYFQS,area with substrate EWLYFQS,area with substrate ELLYFQS,area with substrate EHLYFQS
S209T,0.121,0.132,–,–,–,–
G2W,–,–,0.134,–,–,–
A232D,0.108,–,–,0.115,–,–
Q74L,0.114,0.124,–,–,–,–
F180Y,–,0.127,–,0.115,0.0823,–
V210A,0.107,–,–,–,–,–
I139K,–,–,0.119,0.0933,0.0941,–
S130T,–,–,0.145,–,–,–
C131L,–,–,–,–,–,0.126
V58A,–,–,–,0.0929,–,–
Y12T,–,–,0.139,0.109,–,0.0839
L205Q,0.0561,–,0.0939,–,–,–
S182D,–,–,–,–,0.06,–
S154E,–,–,0.0784,0.0468,0.061,–
E195Q,–,0.104,0.118,–,0.0715,0.111
G138E,0.104,–,0.113,–,–,–
R102S,0.0754,0.109,0.0576,0.0667,0.0511,0.0479
F163G,0.141,–,–,0.08,–,–
F163C,0.141,–,0.121,–,–,–
H143Y,0.145,–,0.114,–,0.127,–
E231D,0.0959,0.161,–,–,0.103,0.113
K90E,–,–,0.122,0.115,–,–
G214L,0.138,–,0.0705,–,0.0755,–
H215Y,0.0859,0.0847,0.161,–,–,0.0887
T159W,0.12,–,–,0.0958,–,–
E103N,–,–,0.124,0.0762,–,0.0673
I15R,0.0674,0.0656,–,0.0696,–,–
P228T,–,0.113,–,–,–,–
F6E,–,–,–,–,0.1,–
K7T,0.0892,–,0.0864,0.0565,0.0995,–

# From the supplement of paper PMC12217912
